Some of the results follow. Cut-off read from the data, not from the text of the source: active = 3.2 or more and inactive = the rest. Only a few entries rise above the background.
molecular target: SHP2 C-SH2 domain E139D; test: enrichment score (SH2-bound / input frequency) (ratio); bacterial display of known human phosphotyrosine sites (pTyr-Var adds point mutants) read by sequencing; higher = stronger binding; tyrosines were phosphorylated by kinases first; details: peptide library: pTyr-Var
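Note: displayed peptides selected on beads carrying the immobilized SH2 domain, with library peptides lacking any tyrosine serving as negative controls.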

Enrichment score, active:
KQRKEYMHRWQ [IQGAP2_Y710_R714W] 4.42

Enrichment score, inactive:
EVGHVYLFLQP [ITGA2B_Y360_R358H] 0.584, PARLEYCENEK [IRS1_Y46_Y47C] 0.836, ARLEYCENEKK [IRS1_Y47_Y47C] 0.59, GDDLSYGDVPP [IRS1_Y151_E147D] 0.35, EYFDGYWGYSV [ITGA2B_Y265] 1.21, EKFVPYFDLFM [IPO5_Y530_YF] 1.67, IYETDYYRKGG [INSR_Y1189] 0.6, EQMASYSGHSV [ITGA2B_Y319_F320S] 0.744, LLFRVYGLESL [INSR_Y94] 0.817, KLFFHYDPKLC [INSR_Y457_N458D] 0.963, RRIEKYVDQGK [IRAK3_Y61_H57R] 0.413, EKFVPYYDLFM [IPO5_Y530] 1.2, RSHLSYDVTPE [IQGAP3_Y1098_P1097S] 0.817, PLGPLYASSNP [INSR_Y992] 0.735, GEDLSYGDVPP [IRS1_Y151] 0.467, IFETDYFQKGG [INSR_Y1189_R1191Q_YF] 1.12, KLFFHYNPKLC [INSR_Y457] 1.58, KQRKEYMHRRQ [IQGAP2_Y710] 0.312

molecular target: SHP2 C-SH2 domain wild-type; test: as above; details: peptide library: pTyr-Var

Enrichment score, inactive:
EVGHVYLFLQP [ITGA2B_Y360_R358H] 0.761, PARLEYCENEK [IRS1_Y46_Y47C] 0.619, ARLEYCENEKK [IRS1_Y47_Y47C] 0.608, GDDLSYGDVPP [IRS1_Y151_E147D] 0.39, EYFDGYWGYSV [ITGA2B_Y265] 1.27, EKFVPYFDLFM [IPO5_Y530_YF] 1.92, IYETDYYRKGG [INSR_Y1189] 0.551, EQMASYSGHSV [ITGA2B_Y319_F320S] 0.51, LLFRVYGLESL [INSR_Y94] 0.671, KLFFHYDPKLC [INSR_Y457_N458D] 1.11, RRIEKYVDQGK [IRAK3_Y61_H57R] 0.22, EKFVPYYDLFM [IPO5_Y530] 1.06, RSHLSYDVTPE [IQGAP3_Y1098_P1097S] 0.707, PLGPLYASSNP [INSR_Y992] 0.652, GEDLSYGDVPP [IRS1_Y151] 0.539, IFETDYFQKGG [INSR_Y1189_R1191Q_YF] 0.934, KLFFHYNPKLC [INSR_Y457] 1.45, KQRKEYMHRRQ [IQGAP2_Y710] 0.313

Enrichment score, active:
KQRKEYMHRWQ [IQGAP2_Y710_R714W] 3.78

molecular target: SHP2 N-SH2 domain L43F; test: as above; details: peptide library: pTyr-Var

Enrichment score, inactive:
EVGHVYLFLQP [ITGA2B_Y360_R358H] 0.631, PARLEYCENEK [IRS1_Y46_Y47C] 0.743, ARLEYCENEKK [IRS1_Y47_Y47C] 0.589, GDDLSYGDVPP [IRS1_Y151_E147D] 0.353, EYFDGYWGYSV [ITGA2B_Y265] 1.47, EKFVPYFDLFM [IPO5_Y530_YF] 1.75, IYETDYYRKGG [INSR_Y1189] 0.531, EQMASYSGHSV [ITGA2B_Y319_F320S] 0.525, LLFRVYGLESL [INSR_Y94] 0.85, KLFFHYDPKLC [INSR_Y457_N458D] 0.712, RRIEKYVDQGK [IRAK3_Y61_H57R] 0.3, EKFVPYYDLFM [IPO5_Y530] 1.15, RSHLSYDVTPE [IQGAP3_Y1098_P1097S] 0.89, PLGPLYASSNP [INSR_Y992] 0.86, GEDLSYGDVPP [IRS1_Y151] 0.477, IFETDYFQKGG [INSR_Y1189_R1191Q_YF] 1.09, KLFFHYNPKLC [INSR_Y457] 1.2, KQRKEYMHRRQ [IQGAP2_Y710] 0.346

Enrichment score, active:
KQRKEYMHRWQ [IQGAP2_Y710_R714W] 3.58

molecular target: SHP2 N-SH2 domain T42A; test: as above; details: peptide library: pTyr-Var

Enrichment score, active:
KQRKEYMHRWQ [IQGAP2_Y710_R714W] 3.45

Enrichment score, inactive:
EVGHVYLFLQP [ITGA2B_Y360_R358H] 0.494, PARLEYCENEK [IRS1_Y46_Y47C] 1.13, ARLEYCENEKK [IRS1_Y47_Y47C] 0.728, GDDLSYGDVPP [IRS1_Y151_E147D] 0.438, EYFDGYWGYSV [ITGA2B_Y265] 1.29, EKFVPYFDLFM [IPO5_Y530_YF] 2.85, IYETDYYRKGG [INSR_Y1189] 0.675, EQMASYSGHSV [ITGA2B_Y319_F320S] 0.622, LLFRVYGLESL [INSR_Y94] 0.884, KLFFHYDPKLC [INSR_Y457_N458D] 1.1, RRIEKYVDQGK [IRAK3_Y61_H57R] 0.307, EKFVPYYDLFM [IPO5_Y530] 2.27, RSHLSYDVTPE [IQGAP3_Y1098_P1097S] 0.516, PLGPLYASSNP [INSR_Y992] 0.735, GEDLSYGDVPP [IRS1_Y151] 0.374, IFETDYFQKGG [INSR_Y1189_R1191Q_YF] 0.717, KLFFHYNPKLC [INSR_Y457] 1.39, KQRKEYMHRRQ [IQGAP2_Y710] 0.404

molecular target: SHP2 N-SH2 domain T52S; test: as above; details: peptide library: pTyr-Var

Enrichment score, inactive:
EVGHVYLFLQP [ITGA2B_Y360_R358H] 0.539, PARLEYCENEK [IRS1_Y46_Y47C] 0.776, ARLEYCENEKK [IRS1_Y47_Y47C] 0.694, GDDLSYGDVPP [IRS1_Y151_E147D] 0.477, EYFDGYWGYSV [ITGA2B_Y265] 1.51, EKFVPYFDLFM [IPO5_Y530_YF] 1.44, IYETDYYRKGG [INSR_Y1189] 0.661, EQMASYSGHSV [ITGA2B_Y319_F320S] 0.556, LLFRVYGLESL [INSR_Y94] 0.374, KLFFHYDPKLC [INSR_Y457_N458D] 0.69, RRIEKYVDQGK [IRAK3_Y61_H57R] 0.279, EKFVPYYDLFM [IPO5_Y530] 1.33, RSHLSYDVTPE [IQGAP3_Y1098_P1097S] 0.855, PLGPLYASSNP [INSR_Y992] 0.912, GEDLSYGDVPP [IRS1_Y151] 0.479, IFETDYFQKGG [INSR_Y1189_R1191Q_YF] 0.954, KLFFHYNPKLC [INSR_Y457] 1.05, KQRKEYMHRRQ [IQGAP2_Y710] 0.372

Enrichment score, active:
KQRKEYMHRWQ [IQGAP2_Y710_R714W] 4.21

molecular target: SHP2 N-SH2 domain wild-type; test: as above; details: peptide library: pTyr-Var

Enrichment score, active:
KQRKEYMHRWQ [IQGAP2_Y710_R714W] 3.71

Enrichment score, inactive:
EVGHVYLFLQP [ITGA2B_Y360_R358H] 0.813, PARLEYCENEK [IRS1_Y46_Y47C] 0.765, ARLEYCENEKK [IRS1_Y47_Y47C] 0.683, GDDLSYGDVPP [IRS1_Y151_E147D] 0.94, EYFDGYWGYSV [ITGA2B_Y265] 1.33, EKFVPYFDLFM [IPO5_Y530_YF] 2.38, IYETDYYRKGG [INSR_Y1189] 0.497, EQMASYSGHSV [ITGA2B_Y319_F320S] 0.601, LLFRVYGLESL [INSR_Y94] 0.752, KLFFHYDPKLC [INSR_Y457_N458D] 1.14, RRIEKYVDQGK [IRAK3_Y61_H57R] 0.325, EKFVPYYDLFM [IPO5_Y530] 1.06, RSHLSYDVTPE [IQGAP3_Y1098_P1097S] 0.847, PLGPLYASSNP [INSR_Y992] 0.929, GEDLSYGDVPP [IRS1_Y151] 0.593, IFETDYFQKGG [INSR_Y1189_R1191Q_YF] 0.931, KLFFHYNPKLC [INSR_Y457] 1.15, KQRKEYMHRRQ [IQGAP2_Y710] 0.383
